Source: PubChem BioAssay AID504832 (National Center for Advancing Translational Sciences (NCATS), 2011)
“And” between values parts separate entries of the source, which are not always exact repeats. Identical values can stand only once. The whole screen tested about 310,000 compounds, of which about 18,000 (5.8%) were called active. The shares of active, inactive and inconclusive entries below differ from those in the screen. The call rests on the fitted dose curve; in most records, active means well fitted inhibition curve with a large enough effect; inconclusive means small, poorly fitted or top-dose-only effect, or another doubt; inactive means no such curve, though single readings can be large or run the other way. Where the call is inconclusive, the potency comes from a doubtful curve fit.

Test: Primary qHTS for delayed death inhibitors of the malarial parasite plastid, 48 hour incubation
Conditions: P. falciparum luciferase growth in erythrocytes; series mostly up to 28.7 µM
Procedure, shortened: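 Luciferase-expressing parasites in RBCs, 2% Hct / 0.1% parasitemia final; RPMI 1640 + 0.5% Albumax; 37 C, 5% CO2, one generation; luminescence read-out, lower signal = inhibition.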
Potency means the concentration at half of the fitted maximal effect; tags describe the fitted curve by direction and shape.

Row | Compound | Potency
1 | O=C1C=C(c2ccc3c(c2)OCO3)C[C@@H](c2ccc3c(c2)OCO3)C1 | inactive
2 | CC(C)(C)NC(=O)CN1CCC(O)(c2ccc3c(c2)OCO3)CC1 | inactive
3 | FC(F)(F)c1ccc(N/N=C/c2cccnc2)nc1 | inconclusive: 11.7 µM [inhibitor, single point]
4 | CCOc1ccc(NS(=O)(=O)c2cccc(C(=O)N(C)Cc3ccco3)c2)cc1 | inconclusive: 13.1 µM [inhibitor, single point]
5 | COc1ccc2c(c1)CCCN2C(N)=Nc1ccc(Cl)cc1 | inconclusive: 14.7 µM [inhibitor, single point]
6 | O=c1[nH]c(Cc2ccccc2)nc2c1oc1ccccc12 | inconclusive: 10.4 µM [inhibitor, single point]
7 | O=C(Nc1ccc(F)cc1)c1cccnc1NCCc1ccccc1 | inconclusive: 18.5 µM [inhibitor, single point]
8 | CC(C)CCNC(=O)CN1C(=O)CN=C(c2ccccc2)c2ccccc21 | inconclusive: 20.8 µM [inhibitor, partial curve, poor fit]
9 | COc1nc(N=C(N)N)nc2c(C)cccc12 | active: 1.65 µM
10 | CCOc1ccc(C2c3[nH]c4ccccc4c3CCN2Cc2cn(CC)nc2C)cc1 (stereo not given) | inconclusive: 13.1 µM [inhibitor, single point]
11 | O=Cc1ccc(O)c2ncccc12 | active: 6.57 µM
12 | COc1ccc2oc(C(=O)NCCc3ccccc3)c(C)c2c1 | inactive
13 | COc1ccc(C(=O)N2CC3(C)CC2CC(C)(C)C3)cc1OC (stereo not given) | inconclusive: 18.5 µM [inhibitor, single point]
14 | Cc1cc(=O)n(CC(=O)NC2CC2)c2c1c(C)nn2-c1ccccc1 | inactive
15 | C#C[C@]1(O)CC[C@H]2[C@@H]3CCC4=CC(=O)CC[C@@H]4[C@H]3CC[C@@]21CC | inconclusive: 13.5 µM [inhibitor, partial curve] and inconclusive: 10.4 µM [inhibitor, partial curve]
16 | COc1ccc(-c2cc(=O)oc3cc(OC(C)C(=O)NCc4ccccn4)ccc23)cc1 (stereo not given) | inconclusive: 11.7 µM [inhibitor, single point]
17 | CCOc1cc(/C=C2/SC(=S)N(Cc3ccccc3)C2=O)ccc1O | inconclusive: 0.0828 µM [inhibitor, full curve, poor fit]
18 | CNC(=S)N(C)/N=C1/C(=O)N(Cc2c(Cl)cccc2Cl)c2ccccc21 | inconclusive: 14.7 µM [inhibitor, single point]
19 | Fc1ccc(/C=C\c2nccc3c2[nH]c2ccccc23)cc1 | inconclusive: 2.62 µM [inhibitor, full curve]
20 | COC(=O)C1=C(C)Nc2ncnn2C1c1ccccn1 (stereo not given) | inactive
21 | Cc1ccc(CSc2ncnc3c2cnn3Cc2ccccc2)cc1 | inactive
22 | CC(C(=O)O)N1C(=O)/C(=C/C=C/c2ccco2)SC1=S (stereo not given) | inactive
23 | COc1ccc([N+](=O)[O-])cc1N(CC(=O)NCCCOC(C)C)S(C)(=O)=O | inactive
24 | COc1cccc(-n2c(SCC(=O)c3c[nH]c4ccccc34)nc3ccccc3c2=O)c1 | inconclusive: 4.65 µM [inhibitor, partial curve, poor fit]

Row | Compound | Potency
25 | Cc1cccn2c(CNCCSc3nccn3C)c(C(=O)N3CCCCC3)nc12 | inactive
26 | Cc1ccc(NC(=O)c2ccccc2)cc1-n1cnnn1 | inconclusive: 9.28 µM [inhibitor, partial curve, poor fit]
27 | CC1CCN(c2nc3c(c(=O)[nH]c(=O)n3C)n2CC(C)CSc2nnnn2-c2ccccc2)CC1 (stereo not given) | inconclusive: 13.1 µM [inhibitor, single point]
28 | Cc1ccc2oc(-c3cccc(NC(=S)NC(=O)/C=C/c4ccco4)c3)nc2c1 | inactive
29 | O=C(C1=C[C@@H](c2ccccc2)C[C@@H](OCc2ccc(CO)cc2)O1)N1CCCCCCC1 | inconclusive: 2.33 µM [inhibitor, full curve, poor fit]
30 | CSC1=N/C(=C\c2ccc(C)s2)C(=O)S1 | inactive
31 | CCCC1=[N+](CC(=O)c2ccc(C)cc2)CCn2cccc21 | active: 10.4 µM
32 | COc1ccccc1NS(=O)(=O)c1cc(C(=O)NCC(c2cccs2)N2CCOCC2)ccc1C (stereo not given) | inconclusive: 9.28 µM [inhibitor, partial curve, poor fit]
33 | Cc1ccc(C(=O)N/C(=C/c2ccc(-c3cccc([N+](=O)[O-])c3)o2)C(=O)NCCCN(C)C)cc1 | inconclusive: 9.28 µM [inhibitor, partial curve]
34 | CCOC(=O)c1c(C)n(C)c2ccc(O)c(CN3CCCCC3)c12 | inconclusive: 0.586 µM [inhibitor, full curve]
35 | Cc1cc(Cl)ccc1OC(C)C(=O)O (stereo not given) | inactive
36 | Cc1ccccc1N(C(=O)c1snc(C(N)=O)c1N)C(C)C(=O)NC1CCCCC1 (stereo not given) | inconclusive: 11.7 µM [inhibitor, partial curve]
37 | OCCNc1nc(NCc2ccccc2)c2ccccc2n1 | inconclusive: 10.4 µM [inhibitor, single point]
38 | COCc1cc(C)nc(SCC[N+](C)(C)CC(=O)c2ccccc2)c1C#N | inconclusive: 18.5 µM [inhibitor, single point]
39 | COC(=O)c1c(N)n(CCCN2CCOCC2)c2nc3ccccc3nc12 | inconclusive: 6.57 µM [inhibitor, partial curve]
40 | CCc1ccc(/C=N/NC(=O)c2cc(-c3cccc([N+](=O)[O-])c3)n[nH]2)cc1 | inactive
41 | Cc1ccccc1-c1noc(-c2ccc(Cl)cc2)n1 | inactive
42 | COc1ccccc1/C=C1/SC(=S)N(C(C)C(=O)NC2C=CS(=O)(=O)C2)C1=O (stereo not given) | inconclusive: 9.28 µM [inhibitor, partial curve]
43 | CSc1ccccc1NC(=O)CN(C)CC(=O)c1c(C)[nH]c2ccccc12 | active: 4.15 µM
44 | O=C(Nc1ccon1)c1cc(-c2ccccc2)nc2ccccc12 | active: 7.38 µM
45 | O=c1ccc(-c2ccc(S(=O)(=O)N3CCN(c4ccccc4)CC3)o2)n[nH]1 | inconclusive: 4.15 µM [inhibitor, partial curve, poor fit]
46 | O=C(Nc1ccc(Br)cc1)c1cccc2c1C(=O)N(C1CCCCC1)C2 | inconclusive: 18.5 µM [inhibitor, single point]
47 | O=C(Cn1cnc2ccccc2c1=O)NCCC(=O)N1CCN(c2ccccc2)CC1 | inconclusive: 1.47 µM [inhibitor, partial curve, poor fit]
48 | CCC(COC(=O)Nc1cccc(C)c1)NC(=O)OCC(C)C (stereo not given) | inconclusive: 0.165 µM [inhibitor, full curve, poor fit]

Row | Compound | Potency
49 | COc1cccc(NC(=O)CN2C(=O)NC(C)(CCC(C)C)C2=O)c1 (stereo not given) | active: 10.4 µM
50 | CCN(CC)c1ccc(/C=N/NC(=O)c2c(Cl)c(C)nn2C)cc1 | inactive
51 | Cc1cccc(N2CCN(C(=O)c3cccc(N4CCCC4=O)c3)C(C)C2)c1 (stereo not given) | inconclusive: 1.47 µM [inhibitor, partial curve]
52 | CC(C)c1ccc(N)c(S(=O)(=O)O)c1 | inactive
53 | CC(C)=N/N=C1/NC(=O)C(CC(=O)Nc2cc(Cl)ccc2C)S1 (stereo not given) | inconclusive: 13.1 µM [inhibitor, single point]
54 | CCc1nnc(NC(=O)CN2CCN(S(C)(=O)=O)CC2)s1 | inconclusive: 18.5 µM [inhibitor, single point]
55 | O=C(CN1c2ccccc2Sc2ccccc21)NNC(=S)Nc1ccc(Cl)cc1Cl | inactive
56 | O=C(CSc1nnc(-c2ccccc2F)o1)Nc1ccc(N2CCOCC2)cc1 | inactive
57 | Brc1ccc2c(c1)C(OC1CN3CCC1CC3)c1ccccc1CS2 (stereo not given) | inconclusive: 2.94 µM [inhibitor, full curve]
58 | O=C(COc1ccc(-c2nnco2)cc1)Nc1ccc(C(F)(F)F)cc1 | inconclusive: 16.5 µM [inhibitor, single point]
59 | O=C(CSc1cccs1)Nc1ccc(Cl)cc1 | inactive
60 | Cc1cc2c(C(C)C)c(O)c(O)c(C=O)c2c(O)c1-c1c(C)cc2c(C(C)C)c(O)c(O)c(C=O)c2c1O | active: 11.7 µM and active: 13.1 µM
61 | COc1ccc(/C=C2\CCCC3C2=NN(C(=O)CSc2n[nH]c(N)n2)C3c2ccc(OC)cc2)cc1 (stereo not given) | inconclusive: 13.1 µM [inhibitor, partial curve, poor fit]
62 | CCC(C)(C)NC(=O)C(c1ccccc1F)N(Cc1ccco1)C(=O)c1csnn1 (stereo not given) | inconclusive: 4.65 µM [inhibitor, partial curve, poor fit]
63 | Cc1ccc(OCC(=O)N/N=C/c2c[nH]c3ccccc23)c([N+](=O)[O-])c1 | inactive
64 | Cc1cccc(OCC(=O)N2CCN(C(=O)COc3ccc(Cl)cc3)CC2)c1 | inconclusive: 9.28 µM [inhibitor, single point]
65 | CCC1(c2ccccc2)NC(=O)N(CC(=O)NCCN2C(=O)S/C(=C\c3cccnc3)C2=O)C1=O (stereo not given) | inconclusive: 13.1 µM [inhibitor, single point]
66 | COc1ccc(C(=O)Nc2ccc(N3CCN(C(=O)c4cccs4)CC3)cc2)cc1Br | inconclusive: 6.57 µM [inhibitor, partial curve]
67 | CC(OC(=O)C1=COCCO1)C(=O)Nc1ccc(Cl)cn1 (stereo not given) | inconclusive: 13.1 µM [inhibitor, single point]
68 | NC(=S)NNC(=O)c1cccc(Br)c1 | inactive
69 | CC12CCC(C(=O)Nc3cccc4ccccc34)(C1Br)C2(C)C (stereo not given) | inconclusive: 18.5 µM [inhibitor, single point]
70 | O=C(N/C(=C/c1cccs1)c1nc2ccccc2[nH]1)c1ccccc1 | inactive
